According to the supplement of paper PMC12067230:
This is a noisy data set.

Experiment: amyloid nucleation score relative to library mode (yeast Sup35 reporter selection) (log enrichment difference); higher = more amyloid nucleation; sequences are the first 22 residues of the Bri2 peptide extended by up to 12 random residues
Details: random library (experiment): 1;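 active = nucleation score significantly above 0 at FDR 0.05; inactive = not significantly above 0 or absent from output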
Experimental: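 Random C-terminal extensions of the 22-aa Bri2 peptide by 12 NNK codons; premature stops give shorter extensions. Peptides were fused to the Sup35 nucleation domain in S. cerevisiae [psi-pin-] and selected on -ADE-URA plates for 7 d at 30 °C. The nucleation score is log(output/input), centred to the mode of each of 3 independent libraries (1 input, 3 technical output replicates), with duplicates merged. Sequences absent from the output ('random_non_nuc') were imputed with the library mode value, so they are given as censored (<). Nucleators are scores significantly >0 at FDR 0.05.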
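Also: [psi-pin-] Saccharomyces cerevisiae expressing SupN fusions, induced by 100 µM Cu2SO4, selected 7 d at 30 °C without adenine and uracil, scored by deep sequencing of output versus input.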

Sequence | amyloid nucleation score
EASNCFAIRHFENKFAVETLICALKLAYAEHSVI | inactive
EASNCFAIRHFENKFAVETLICRWGNSVSSGFTV | inactive
EASNCFAIRHFENKFAVETLICALWGTRSLKGSA | inactive
EASNCFAIRHFENKFAVETLICNVKFVC | 4.46
EASNCFAIRHFENKFAVETLICAVKTRSGSTARG | inactive
EASNCFAIRHFENKFAVETLICEWLRNCTARMAT | inactive
EASNCFAIRHFENKFAVETLICRGEIGQSCESDV | inactive
EASNCFAIRHFENKFAVETLICPL | 0.371
EASNCFAIRHFENKFAVETLICIPYGQVGNNVPA | inactive
EASNCFAIRHFENKFAVETLICAPDFIKFRSVQA | inactive
EASNCFAIRHFENKFAVETLICYLLVAETPMFRR | 0.42
EASNCFAIRHFENKFAVETLICQIGRGNAGGRAW | 3.7
EASNCFAIRHFENKFAVETLICCHC | 4.22
EASNCFAIRHFENKFAVETLICTGRMGDRRSAVR | inactive
EASNCFAIRHFENKFAVETLICGKVGWTVEYLRF | inactive
EASNCFAIRHFENKFAVETLICEVLAYNMLLMGA | inactive
EASNCFAIRHFENKFAVETLICQCGFACRRVTYA | inactive
EASNCFAIRHFENKFAVETLICVGMMWVRARMEV | inactive
EASNCFAIRHFENKFAVETLICCIDRCWTGHVLV | inactive
EASNCFAIRHFENKFAVETLICWPGWKWPGPEEQ | 6.55
EASNCFAIRHFENKFAVETLICTYREFIGPGLRW | inactive
EASNCFAIRHFENKFAVETLICGWPEDGPTLRTR | inactive
EASNCFAIRHFENKFAVETLICRYDCSKGSILGE | inactive
EASNCFAIRHFENKFAVETLICVVLAVAPWEQGA | -0.534

Sequence | amyloid nucleation score
EASNCFAIRHFENKFAVETLICVPFGNALSLEGV | 0.826
EASNCFAIRHFENKFAVETLICQEWRGEGSQGWS | inactive
EASNCFAIRHFENKFAVETLICNTVLKYGSGVLV | inactive
EASNCFAIRHFENKFAVETLICKFRANLVRGLLG | inactive
EASNCFAIRHFENKFAVETLICCQLSPR | 7.53
EASNCFAIRHFENKFAVETLICDAFV | inactive
EASNCFAIRHFENKFAVETLICEACFD | inactive
EASNCFAIRHFENKFAVETLICGVNVECCGDVLL | 3.87
EASNCFAIRHFENKFAVETLICVTAQMWMRSKVG | inactive
EASNCFAIRHFENKFAVETLICFYFCGAMQDRDH | 6.8
EASNCFAIRHFENKFAVETLICDRKLRRPGGPET | inactive
EASNCFAIRHFENKFAVETLICGLQSFVCNRRAG | 7.9
EASNCFAIRHFENKFAVETLICKTMSQGFQAECA | -0.0664
EASNCFAIRHFENKFAVETLICNCLLSACLFLWW | 0.833
EASNCFAIRHFENKFAVETLICDFGAAIVGNEVM | inactive
EASNCFAIRHFENKFAVETLICKQKGGLSIVESR | inactive
EASNCFAIRHFENKFAVETLICFRRSTKLTRLRR | 1.29
EASNCFAIRHFENKFAVETLICCCGWPGVAWWTA | 6.95
EASNCFAIRHFENKFAVETLICLTMCHCTGVCTE | 6.67
EASNCFAIRHFENKFAVETLICVAHTHYPRLRGW | inactive
EASNCFAIRHFENKFAVETLICDLEFIVKWRVRM | inactive
EASNCFAIRHFENKFAVETLICDLIASRVTINEW | 0.49
EASNCFAIRHFENKFAVETLICKTVRCVDSWLGL | 2.79
EASNCFAIRHFENKFAVETLICGSSMNGAALAHT | inactive

Same assay, conditions: random library (experiment): 2

Sequence | amyloid nucleation score
EASNCFAIRHFENKFAVETLICIIRRPCNSYVLL | inactive
EASNCFAIRHFENKFAVETLICNVVCCIQNLLCP | 6.71
EASNCFAIRHFENKFAVETLICDFLLSHRFCRYY | inactive
EASNCFAIRHFENKFAVETLICCTVERKYRVNGS | 2.1
EASNCFAIRHFENKFAVETLICRFSLKGIAWLLG | inactive
EASNCFAIRHFENKFAVETLICMDDTFSDSSRAM | inactive
EASNCFAIRHFENKFAVETLICLMSLDSVLRCKR | -0.378
EASNCFAIRHFENKFAVETLICGSNTRAS | 4.07
EASNCFAIRHFENKFAVETLICDRLLSC | inactive
EASNCFAIRHFENKFAVETLICCCSSYNSGNVFG | 8.49
EASNCFAIRHFENKFAVETLICFSGRTMNYAV | inactive
EASNCFAIRHFENKFAVETLICDANWVWHCSSLW | 4.87
EASNCFAIRHFENKFAVETLICRCFRLVQDMGEW | inactive
EASNCFAIRHFENKFAVETLICQRTLYTELEVR | inactive
EASNCFAIRHFENKFAVETLICVVGK | -0.157
EASNCFAIRHFENKFAVETLICWLVVFSLYLAYV | inactive

Sequence | amyloid nucleation score
EASNCFAIRHFENKFAVETLICIDENDEWLYNPG | inactive
EASNCFAIRHFENKFAVETLICGREMPSLSVFTR | -0.0862
EASNCFAIRHFENKFAVETLICLLNCSSCNVVVW | 4.41
EASNCFAIRHFENKFAVETLICGYVMFYDNIRRR | 2.95
EASNCFAIRHFENKFAVETLICTCSLLFKMTGVD | inactive
EASNCFAIRHFENKFAVETLICKLMKDRVWMNEL | inactive
EASNCFAIRHFENKFAVETLICDVHWYFWHRCYI | 1.38
EASNCFAIRHFENKFAVETLICPSYAVR | inactive
EASNCFAIRHFENKFAVETLICDFLQGKTLVRWT | inactive
EASNCFAIRHFENKFAVETLICYSGWTTSLYSKW | -0.419
EASNCFAIRHFENKFAVETLICFLYCSSIQCVK | inactive
EASNCFAIRHFENKFAVETLICCVW | 7.41
EASNCFAIRHFENKFAVETLICINLLSFGRWWEE | 7.01
EASNCFAIRHFENKFAVETLICNLKVSILHAVLE | inactive
EASNCFAIRHFENKFAVETLICDEEFSE | inactive
EASNCFAIRHFENKFAVETLICINGIFVHITLAC | inactive

Same assay, conditions: random library (experiment): 3

Sequence | amyloid nucleation score
EASNCFAIRHFENKFAVETLICFLCCNICNKRHT | 8.87
EASNCFAIRHFENKFAVETLICVFV | inactive
EASNCFAIRHFENKFAVETLICYSFCQWTNAIGR | 5.23
EASNCFAIRHFENKFAVETLICPLILQFRHFPRP | inactive
EASNCFAIRHFENKFAVETLICLGGSWLIVPGDM | 2.97
EASNCFAIRHFENKFAVETLICNREGETVRVRLQ | inactive
EASNCFAIRHFENKFAVETLICPTRYSIQ | inactive
EASNCFAIRHFENKFAVETLICILFWTWYERLSK | inactive
EASNCFAIRHFENKFAVETLICRSLTYMHLRVQP | inactive
EASNCFAIRHFENKFAVETLICKMDDGKGAACRL | inactive
EASNCFAIRHFENKFAVETLICVDTCEIVPGLRS | inactive
EASNCFAIRHFENKFAVETLICGSRQEGVWGDAR | inactive
EASNCFAIRHFENKFAVETLICCGDVPRVMWSGV | 4.44
EASNCFAIRHFENKFAVETLICFDKWYIRFNDSW | inactive
EASNCFAIRHFENKFAVETLICLYPKVIVAFAYG | inactive
EASNCFAIRHFENKFAVETLICLRWFHNLNVDDS | inactive
EASNCFAIRHFENKFAVETLICGTSVRRFVNALG | inactive

Sequence | amyloid nucleation score
EASNCFAIRHFENKFAVETLICTVVLYAMRGIQG | inactive
EASNCFAIRHFENKFAVETLICGYGWGRKSSKCT | inactive
EASNCFAIRHFENKFAVETLICVRQPTSL | 2.57
EASNCFAIRHFENKFAVETLICCSLVEASAEFEG | 9.05
EASNCFAIRHFENKFAVETLICGLSWTPSMGVLG | 0.582
EASNCFAIRHFENKFAVETLICLVGVQCSGLVAV | inactive
EASNCFAIRHFENKFAVETLICWQGTDIAAIHWH | 1.77
EASNCFAIRHFENKFAVETLICLP | -0.0854
EASNCFAIRHFENKFAVETLICKCARMSG | 3.93
EASNCFAIRHFENKFAVETLICWARRGLVPARVW | inactive
EASNCFAIRHFENKFAVETLICDAVVGDDLVL | inactive
EASNCFAIRHFENKFAVETLICALMIRPGSMPW | inactive
EASNCFAIRHFENKFAVETLICPLCHVLV | inactive
EASNCFAIRHFENKFAVETLICGFGRVKWSVEGR | 4.76
EASNCFAIRHFENKFAVETLICWCMLVLWGTLRN | inactive
EASNCFAIRHFENKFAVETLICQCG | inactive
EASNCFAIRHFENKFAVETLICGWVCQLLAARMS | 1.16
